# Laboratory results published in ChEMBL document CHEMBL4888484, “Replenishing the malaria drug discovery pipeline: Screening and hit evaluation of the MMV Hit Generation Library 1 (HGL1) against asexual blood stage Plasmodium falciparum ,using a nano luciferase reporter read-out” (2022).
# The campaign covered roughly 150,000 compounds. About 540 (0.36%) showed an effect of 50% or more. The list shows a part of the results.
# System: Plasmodium falciparum
# Test: Primary screen in NF54 nanoGlo assay, in single point, at 2uM, 72h; a lower Z score goes with more inhibition
# Type: functional, Erythrocyte
# Settings: timepoint 72 hour
Structure (SMILES),% Inhibition [%],Z score
COc1cccc(CNS(=O)(=O)c2ccc(CC(=O)N3CCCC3)s2)c1,3,-0.65
CC(C(C)S(C)(=O)=O)N(C)Cc1ccc(C(=O)O)cc1Br (stereo unspecified),-7,1
Cc1ccc(S(=O)(=O)/N=C(\CN2CCCCC2)N2CCN(S(=O)(=O)c3ccc(C)cc3)C2)cc1,-7,0.86
CN(CCc1ccccc1)[C@H]1CCCN(Cc2nc3ccccc3[nH]2)C1,-18,2.61
CC(=O)N1CCO[C@@H](CNC(=O)c2ccc(-c3cc(N)ncn3)cc2)C1,-4,0.65
Cc1ncccc1-n1cccc1C(=O)NC1CCCCCC1,8,-0.79
O=C(CCCn1cncn1)N1C[C@@H]2CC[C@H]1CN(Cc1ccccn1)C2,-4,0.7
CC(C)CC(=O)N1CCN(C(=O)c2ccn(C)n2)[C@H]2CS(=O)(=O)C[C@H]21,-5,0.61
CN(CCCNC(=O)c1c(-c2ccccc2)cc(=O)n2c1CCC2)C1CCCCC1,-7,0.86
Fc1ccc(Cc2nnc3n2CCCC3)cc1,3,-0.52
CCn1cc(S(=O)(=O)N2CC[C@H](c3noc(-c4cnccn4)n3)C2)cn1,-6,0.81
Cc1c(Cl)cccc1NC(=O)CN1C(=O)NC2(CCOCC2)C1=O,-2,0.38
Cc1ccc2nc(-c3ccc(-n4c(C)cc(=O)cc4C)cc3)sc2c1,-13,1.49
COC(=O)c1cc(-c2ccc3c(c2)OCO3)n[nH]1,-15,2.9
O=C(NCCn1c(=O)[nH]c2ccsc2c1=O)c1cc(-c2ccc(F)cc2)c[nH]1,-4,0.72
O=C(NCCN1CCC(CO)CC1)C1CCC1,-13,1.89
CC(C)(C)c1cc(CN2C(=O)C3CC=CCC3C2=O)no1 (stereo unspecified),2,-0.21
O=C1N(CC2CCC2)CCC[C@@]12CCN(Cc1nccs1)C2,-4,0.39
Cc1cnc(CCNC(=O)Cc2ccccc2)n1C1CCC1,-3,0.51
COc1c(Cl)cc(NC(=O)NC[C@H]2CCOC2)cc1Cl,4,-0.48
CC[C@H](C)C(=O)N1CCN(Cc2cn3cc(Cl)ccc3n2)CC1,-3,0.52
CC(C)(C)c1coc(CNC(=O)[C@H]2CCc3nnnn3CC2)n1,-13,2.1
Cc1cccc(C(=O)N[C@@H](CC(C)C)c2nnc3n2CCNCC3)c1O,2,-0.28
